Experimental data: PubChem BioAssay AID1362 (SRMLSC, 2008)
This is one part of the list. Shown are side measurements of this screen, not its main read-out; they come without a call. The list favours compounds with an active or inconclusive main result.

assay: growth inhibition of WT strain, primary screen, mitochondrial fusion inhibitor project, WT and mutant strains, chemical genetic (AID 1362); details: mitochondrial fusion phenotypic screen, at 10 µM; further: tested in S. cerevisiae

SMILES | inhibition [%]
ClC(Cl)(c1nnnn1-c1ccccc1)c1nnnn1-c1ccccc1 | 85
Cc1ccc2nc(-c3cccc(NS(C)(=O)=O)c3)cc(-c3ccccc3)c2c1 | 55.1
CCCc1cc(-c2nc(N)ncc2-c2ccc3c(c2)OCCCO3)c(O)cc1OC | 13.2
CCOC(=O)COc1ccc2ccccc2c1/C=C/[N+](=O)[O-] | 76.9
CN(Cc1ccccc1)S(=O)(=O)c1ccc(C(=O)Nc2nnc(C3CC3)o2)cc1 | 60.3
COc1ccccc1N1CCN(C(=O)c2ccc3[nH]c4c(c3c2)CC(C)CC4)CC1 (stereo not drawn) | -1.44
O=C(c1ccc2c(=O)n(C3CCCC3)c(=S)[nH]c2c1)N1CCCCCC1 | 91.7
C=C(C)COc1ccc(-c2nc(N)ncc2-c2ccc(OC)cc2)c(O)c1 | 60.5
CC1=C(C#N)C(NC(=O)c2ccc(C)cc2)(C(F)(F)F)C(=O)N1 (stereo not drawn) | -7.02
CC1=NN(C(N)=S)C(=O)C1N=Nc1c(C)cc(C)cc1C (stereo not drawn) | 42.4
CCOCCCNC(=O)NC12CC3CC(CC(C3)C1)C2 | 15.4
CC/C(=N\NC(=S)Nc1cc(C)ccc1C)c1ccc(OC(F)F)cc1 | 55.1
Cc1cc(C)nc(/N=c2/ssnc2Cl)c1 | 56.4
COCCCNC(=S)N1CCCN(c2nc3c(C)c(C)ccc3cc2C#N)CC1 | 27.2
Cc1cc(CN2CCOCC2)c(O)c(C2(C)CCCCC2)c1 | 70.8
COc1ccccc1N1CCN(c2nc(C)nc3c2oc2ccccc23)CC1 | 30.4
Cc1cccc(-c2nnc(SCc3ccccc3)o2)c1 | -10.2
COc1cc(/C=N/n2cnnc2)ccc1OCc1ccccc1 | 2.37
CN(CC(=O)Nc1ccccc1-c1ccccc1)Cc1ccccc1Cl | 27.5
Cn1nnc(NC(=S)NC(=O)c2ccc(-c3ccc(Br)cc3)o2)n1 | 48.5
CN1N=C(c2ccc(Cl)cc2)CC(c2ccc(Cl)cc2)C1=O (stereo not drawn) | 51.1
Cc1cc(OCCCCn2ccnc2)cc(C)c1Cl | 68

SMILES | inhibition [%]
COc1ccc(OC)c(S(=O)(=O)Nc2ccc(Oc3ccccc3)cc2)c1 | 2.76
CCC(C)n1c(=S)[nH]c2c(sc3ccc([N+](=O)[O-])cc32)c1=O (stereo not drawn) | 64.2
CCOc1cccc(C(=O)Nc2ccc3oc(Cc4ccc(Cl)cc4)nc3c2)c1 | 36.2
CCCOc1ccc(Cc2c(Cl)nc(SC)nc2N(C)C)cc1 | -18
CN1/C(=C\C(=O)Nc2ccc(Br)cc2)C(C)(C)c2ccccc21 | 16.3
CC1CCCN(c2nc(-c3cccnc3)nc3scc(-c4ccccc4)c23)C1 (stereo not drawn) | -9.7
Cc1cccc(-c2cc3nc4c(c(N5CCOCC5)n3n2)CCCC4)c1 | 64.7
CC(C)(C)c1ccc(C(=O)CC(=O)c2cc(Cl)ccc2O)cc1 | 55.7
CCOC(=O)c1[nH]c2ccc(OC)cc2c1NC(=O)C(C)N1CCC2(CC1)OCCO2 (stereo not drawn) | 16
Cc1ccn2c(NC3CCCC3)c(-c3ccccn3)nc2c1 | 66.1
Nc1nc(-c2ccc3c(c2)CCCC3)cs1 | 80.9
Cc1cc(C)c(NC2=NCC(=O)N2C2CCCCC2)c(C)c1 | 58
CC1=C(C(=O)OCc2ccccc2)C(/C=C/c2ccccc2)NC(=S)N1 (stereo not drawn) | 22.7
COC(=O)CSc1nc(N)c2c3c(sc2n1)C(c1ccccc1)SC(c1ccccc1)C3 (stereo not drawn) | 44.1
N#C[C@H]1[C@H](c2ccccc2)[C@](C#N)(C(=O)c2ccccc2)[C@@H]2C=Cc3ccccc3N21 | -2.38
O=C1c2ccccc2C(=O)N1CCCCN(C(=O)c1cc([N+](=O)[O-])ccc1Cl)c1ccc(Cl)cc1 | 31.6
Clc1ccc(C2=Nn3c(nnc3-c3cc(-c4ccccc4)n[nH]3)SC2)cc1 | 10.8
CC(C)NC(=S)NC(=O)c1ccc(-c2ccccc2)cc1 | 23.5
O=C(Nc1nnc(C2CC2)o1)c1ccc(S(=O)(=O)N2CCc3ccccc3C2)cc1 | 42.4
Cc1cnn(C(=S)NCc2ccc(Cl)cc2)c1 | 34.5
COCC(C)NC(=O)c1cc(-c2cccc(OC)c2)on1 (stereo not drawn) | 30.9
CC(=O)Nc1ncc(Cc2cc(Cl)ccc2Cl)s1 | 58.5

SMILES | inhibition [%]
COC(=O)C1=C(Nc2ccc(C)cc2)C=C(C)C(C(=O)OC)C1c1ccc(OC)cc1 (stereo not drawn) | 22.1
O=C(NCc1ccccc1)c1ccc(-c2ccccc2C(F)(F)F)o1 | -7.13
CCOC(=O)C(=NC(C)CC)NNc1ccc(Br)cc1 (stereo not drawn) | 66.2
Cc1[nH]c2ccccc2c1C(=O)COC(=O)c1c(-c2ccccc2Cl)noc1C | 70
OC1(c2cccc(C(F)(F)F)c2)CCN(c2ncnc3c2[nH]c2ccccc23)CC1 | 20.7
Cc1ccc(-c2csc(NC(=O)CSc3nc4ccccc4c(=O)n3CCCN(C)C)n2)cc1 | 80.5
Cc1ccc(CNC(=O)CCNC(=O)c2ccco2)cc1 | 4.93
COc1ccccc1C(=O)Nc1nnc(-c2ccc3c(c2)CCCC3)o1 | 33.7
O=S(=O)(NCC(Nc1ccc(Cl)cc1)c1ccccc1)c1ccccc1 (stereo not drawn) | 14.1
COc1cc(SC)ccc1C(=O)NCCOc1ccc(C)c(C)c1 | 28.9
Cc1ccc(NC(=O)c2ccccc2NS(=O)(=O)c2ccc(Cl)s2)cc1 | 76.4
CCCCn1c(N)c(C(=S)NC(=O)CC(C)(C)C)c(=O)n(C)c1=O | 40
CCc1ccc(-c2cc(C(=O)N3N=C(C(F)F)CC3(O)C(F)F)c3ccccc3n2)cc1 (stereo not drawn) | 57.8
CCOc1ccc(Br)cc1C1C(C(=O)OC)=C(N)Oc2cc(N(C)C)ccc21 (stereo not drawn) | 0.67
CC(C)n1c(CSCc2ccc(Cl)cc2Cl)n[nH]c1=S | 53.9
O=C(C1CC1c1ccccc1)N1CCN(c2cccc(Cl)c2)CC1 (stereo not drawn) | 56.1
Clc1ccc(CSc2nnc(-c3ccccn3)n2Cc2ccco2)c(Cl)c1 | 30
CC(C)C(=O)Nc1nnc(SCC(=O)NCc2cccs2)s1 | -8.46
CCO[C@H]1OC(C(=O)Nc2ccccc2)=C[C@@H](c2ccc(C(F)(F)F)cc2)[C@@H]1CCCO | 53.1
Fc1ccc(F)c(C2=NNC(=Nc3ccccc3F)SC2)c1 | 27.1
Cc1ccc(-n2nnnc2C(Cl)(Cl)c2nnnn2-c2ccc(C)cc2)cc1 | 92.2
Cc1cccc(C2(c3cccc(C)c3)CC2C(=O)Nc2ccc([N+](=O)[O-])cc2O)c1 (stereo not drawn) | 80.6

SMILES | inhibition [%]
COc1ccc(C(=O)O/N=C(\N)Cc2ccc(Cl)c(Cl)c2)cc1OC | 56.8
Cc1nc(N2CCN(c3ccccc3)CC2)c2c3c(sc2n1)CCC3 | 53.3
Cc1ccc(-c2csc3ncnc(N4CCc5ccccc5C4)c23)cc1 | -8.89
COc1ccc(NC(=O)c2ccc(Cl)c(S(=O)(=O)N3CCc4ccccc4C3)c2)cn1 | 44.5
CCc1ccccc1N1C[C@@]23C=C[C@@H](O2)C(C(=O)OCC(C)C)[C@H]3C1=O (stereo partly drawn) | 15.9
Cc1cc(C(=O)Nn2c(-c3ccc(Br)cc3)nc3ccccc3c2=O)ccc1[N+](=O)[O-] | 22.2
CC(=O)Nc1ccc(Sc2ncnc3scc(-c4ccccc4)c23)cc1 | 71.1
O=C(O)C1C2C=CC(C2)C1C(=O)Nc1ccc(C(=O)N2CCCCC2)cc1 (stereo not drawn) | -16.9
Cc1cccc(N=Nc2ccc(O)c3ncccc23)c1 | 54
CCC(C)(C)c1ccc(Oc2ccc(N)cc2)cc1 | 23.2
Brc1ccc(CSc2nnc(Cc3c[nH]c4ccccc34)o2)cc1 | 25.2
O=C(CC12CC3CC(CC(C3)C1)C2)NC(=S)NCc1ccco1 | 32.8
CCOc1ccccc1NC(=O)NC(=O)N(C)S(=O)(=O)c1ccc(C)cc1 | -7.93
O=c1c2ccccc2n(Cc2cccc(F)c2)c(=O)n1C1CCCC1 | 42.9
S=C(NNc1ccc2ccccc2c1)NC1CCCCC1 | 66
C=CCOc1c(Br)cc(/C=N/Nc2ccc(C(=O)O)cc2)cc1OCC | -23.3
COc1cc(Nc2nc(-c3ccccc3)c3cc(C)ccc3n2)cc(OC)c1OC | 7.79
CCn1c(C)cs/c1=N\C(=S)Nc1ccccc1C | 59.6
CCOC(=O)c1cnc(-n2nc(C)cc2C)nc1NCc1ccccc1 | 52.8
Cc1ccc(S(=O)(=O)NCc2ccco2)c(C)c1C | 0.1
CCCc1ccc(Oc2c(-c3ccc(O)c(C)c3O)n[nH]c2C)cc1 | 88.4
Cc1oc2c(c1C(=O)c1ccc(Cl)cc1)C(=O)C(=O)c1ccccc1-2 | 73.8

SMILES | inhibition [%]
O=C1c2ccccc2CCC12N=NCC2c1ccc(Br)cc1 (stereo not drawn) | 41.4
Oc1ccc(Cl)cc1-c1cc(-c2ccccc2)n[nH]1 | 44.1
O=S(=O)(Nc1cccc2ncccc12)c1cccs1 | 16.3
CC/C(=C\C1CCCCC1)C(NP(=O)(c1ccccc1)c1ccccc1)c1ccccc1 (stereo not drawn) | -0.13
CN(C)CCCN(C(=O)c1ccc2c(c1)CCCC2)c1nc2ccc(F)cc2s1 | 85.3
O=c1c2ccccc2cnn1-c1nc2ccccc2[nH]1 | 85.1
NCC12CC3CC(C1)CC(c1ccc(Cl)cc1)(C3)C2 | 51.3
O=C(NCC(c1cccnc1)N1CCOCC1)c1ccco1 (stereo not drawn) | 18.2
Fc1ccc(-c2nc(-c3cccs3)[nH]c2-c2ccc(F)cc2)cc1 | 58.6
CC(C)c1ccccc1NC(=S)NN(Cc1ccccc1)c1ccccc1 | 25.8
COC(=O)c1ccc(C2N=C(c3cccs3)CC(c3ccccc3O)N2)cc1 (stereo not drawn) | 32.8
CC(C)C(NS(=O)(=O)c1cccc2nsnc12)C(=O)Nc1nc2ccc(Cl)cc2s1 (stereo not drawn) | 45.8
CC12CCC(O)CC1=CCC1C2CCC2(C)C1CCC21CCC(=O)O1 (stereo not drawn) | 17.5
CCn1c(=O)c([N+](=O)[O-])c(Cl)c2ccccc21 | 50.4
Cc1nc2ccccc2c2oc(C(=O)Nc3ccc(C(C)C)cc3)cc12 | 5.14
CN(C)CCCN(C(=O)CCc1ccccc1)c1nc2ccc(F)cc2s1 | 81.3
Cc1c(CN(C)C)c2c(n1Cc1ccccc1)C(=O)c1ccc(Br)cc1-2 | 79
O=C(CSc1nnc(-c2cnccn2)n1Cc1ccco1)c1ccccc1 | 97.1
CC(=O)N1N=C(c2cccc([N+](=O)[O-])c2)OC1c1cccc(Br)c1 (stereo not drawn) | 42.8
Cc1nn(-c2ccccc2)c(Cl)c1C(=O)OC(C)C(=O)NC(=O)NC1CCCCC1 (stereo not drawn) | 44.8
